{"source": "PubChem BioAssay AID624296", "about": "(National Center for Advancing Translational Sciences (NCATS), 2012)", "note": "About 9,900 (2.8%) of roughly 350,000 compounds were called active. The inconclusive results got no clear call from the source; some entries with a clear call stand among them for comparison. Calls come from the whole dose curve; as a rule, active = well fitted activation curve with a large enough effect; inconclusive = small, poorly fitted or top-dose-only effect; inactive = no such curve, though single readings can be large or run the other way. No potency is given beside an inconclusive call; the fits are too rough. Potency is the fitted concentration of half-maximal effect; tags give direction and shape of the fitted curve."}
{"assay": "A quantitative high throughput screen for small molecules that induce DNA re-replication in MCF 10a normal breast cells; note: nearly all actives have a fitted effect of over 50% in size; for activity, positive = re-replication: % of control where 0% means no effect.", "details": "MCF 10A DNA re-replication, Hoechst nuclear intensity, 48 h; activity, positive = re-replication: at 46.1 µM (top of the series)"}
{"smiles": "COc1ccc2oc(C(=O)N(Cc3ccco3)Cc3cccs3)c(C)c2c1", "Potency": "inconclusive [activator, partial curve]"}
{"smiles": "FC(F)(F)c1nnc(-c2ccccc2)nc1Oc1ccccc1", "Potency": "inconclusive [activator, single point]"}
{"smiles": "Cc1ccc(/C=C/C(=O)N2CCC(Cc3ccccc3)CC2)cc1", "Potency": "inconclusive [activator, single point]"}
{"smiles": "CC(=O)Nc1ccc(S(=O)(=O)NN=CCCc2ccccc2)cc1", "Potency": "inactive"}
{"smiles": "CC(NC(=O)c1ccc(-c2ccccc2)cc1)C(c1ccccc1)N1CCOCC1", "note": "(stereo not given)", "Potency": "inconclusive [activator, single point]"}
{"smiles": "COc1cccc(OCC(=O)Nc2ccc(OC)c(OC)c2)c1", "Potency": "inactive"}
{"smiles": "CCOC(=O)c1c(CN(C)C)n(-c2ccccc2)c2cc(Br)c(OC)cc12", "Potency": "inconclusive [activator, single point]"}
{"smiles": "Cc1ccc(Oc2nc(-c3ccccc3)ncc2S(C)(=O)=O)cc1", "Potency": "inconclusive [activator, single point]"}
{"smiles": "c1csc(Cn2nnnc2CN2CCN(c3nc4ccccc4s3)CC2)c1", "Potency": "inconclusive [activator, partial curve, poor fit]"}
{"smiles": "CCCC1(c2ccccc2)NC(=O)N(CC(=O)NCC2COc3ccccc3O2)C1=O", "note": "(stereo not given)", "Potency": "inactive"}
{"smiles": "COc1ccc(C(=O)C2CCCN(C(=O)C3CCOCC3)C2)c(C)c1", "note": "(stereo not given)", "Potency": "inactive"}
{"smiles": "COCC(=O)OCC(=O)Nc1cc(C)c(C)cc1[N+](=O)[O-]", "Potency": "inconclusive [activator, single point]"}
{"smiles": "N=c1c(C(=O)NCc2ccco2)cc2c(=O)n3ccccc3nc2n1C1CCCC1", "Potency": "active: 20.6 µM"}
{"smiles": "CCOc1cc2[nH]c(=S)n(Cc3ccc(C(=O)NCCCN(CC)CC)cc3)c(=O)c2cc1OCC", "Potency": "inconclusive [activator, single point]"}
{"smiles": "CCN1/C(=C/c2ccc3cc(C)ccc3[n+]2CC)Sc2ccccc21", "Potency": "inactive"}
{"smiles": "CCOC(=O)c1c(C)[nH]c(C(=O)OCC(=O)Nc2cc(C)ccc2OC)c1C", "Potency": "inconclusive [activator, partial curve]"}
{"smiles": "O=C(c1ccccc1)N1CCCc2ccccc21", "Potency": "inactive"}
{"smiles": "COc1ccc(N2CCN(CCCNC(=O)c3cc4sccc4n3C)CC2)cc1", "Potency": "inconclusive [activator, single point]"}
{"smiles": "Nc1nc(-c2ccccc2)c(-c2ccccc2)s1", "Potency": "inactive"}
{"smiles": "Cc1csc(NC(=O)c2cccc([N+](=O)[O-])c2C(=O)O)n1", "Potency": "inactive"}
{"smiles": "COc1cccc(C2NC(=O)NC(O)(C(F)(F)F)C2C(=O)c2cccnc2)c1OC", "note": "(stereo not given)", "Potency": "inactive"}
{"smiles": "CC1C/C(=C/c2cccs2)C(=O)/C(=C/c2cccs2)C1", "note": "(stereo not given)", "Potency": "inactive"}
{"smiles": "O=C1CC(c2ccc(S(=O)(=O)N3CCN(c4ccccc4)CC3)cc2)CN1", "note": "(stereo not given)", "Potency": "inconclusive [activator, single point]"}
{"smiles": "Cc1cccc(OCC(=O)NC(=S)NNC(=O)c2ccncc2)c1", "Potency": "inconclusive [activator, single point]"}
{"smiles": "O=C(Nc1ccc2c(c1)C(=O)OC2)c1ccc(Cl)cc1Cl", "Potency": "inactive"}
{"smiles": "COc1ccc(CN(Cc2cccn2C)S(=O)(=O)c2ccc(C)cc2)cc1", "Potency": "inconclusive [activator, single point]"}
{"smiles": "O=C1NC(=S)N/C1=C/c1ccc2c(c1)OCO2", "Potency": "inconclusive [activator, full curve]"}
{"smiles": "Cc1ccc(N2CCN(C(=O)CNS(=O)(=O)c3ccc(Br)s3)CC2C)cc1", "note": "(stereo not given)", "Potency": "inconclusive [activator, partial curve, poor fit]"}
{"smiles": "COC(=O)C1=C(C)N(Cc2ccccc2)C(=NCc2ccccc2)N[C@H]1c1cccc(C(F)(F)F)c1", "Potency": "inconclusive [activator, single point]"}
{"smiles": "CCCCCCCNC(=O)C1(CC2CC(c3cccc(Br)c3)=NO2)CCN(C(=O)Cc2ccc(F)cc2)CC1", "note": "(stereo not given)", "Potency": "inconclusive [activator, single point]"}
{"smiles": "COc1ccc(S(=O)(=O)N2CCCCC2)cc1NC(=O)CCCOc1ccc(C)cc1", "Potency": "inconclusive [activator, single point]"}
{"smiles": "Cc1cccc(C(=O)NC2=NCCS2)c1", "Potency": "inconclusive [activator, single point]"}
{"smiles": "COc1ccc(C2=Nn3c(nnc3C3CCCCC3)SC2)cc1OC", "Potency": "inactive"}
{"smiles": "CCOc1ccc(S(=O)(=O)c2c(C(=O)c3ccc(C)cc3)cnc3cc4c(cc23)OCCO4)cc1", "Potency": "inactive"}
{"smiles": "CCn1c2ccccc2c2cc(NC(=O)c3ccc(=O)oc3)ccc21", "Potency": "active: 16.4 µM"}
{"smiles": "CCOC(=O)C(=O)c1csc(NC(=O)CCSc2ccc(C)cc2)n1", "Potency": "active: 0.58 µM"}
{"smiles": "CCCCN1CCc2c([nH]c3ccccc23)C1=O", "Potency": "inconclusive [activator, partial curve, poor fit]"}
{"smiles": "Cc1ccc(/C=C/C(=O)O)cc1S(=O)(=O)NCC1CCCO1", "note": "(stereo not given)", "Potency": "inactive"}
{"smiles": "O=C(c1cc(COc2ccc(F)c(F)c2)on1)N1CCN(C2CCCCC2)C(=O)C1", "Potency": "inactive"}
{"smiles": "Cc1cc2cc(CNC(=S)Nc3ccc(OC(F)(F)F)cc3)ccc2n1C", "Potency": "inconclusive [activator, partial curve, poor fit]"}
{"smiles": "Cc1ccccc1Cn1cc(/C=N/n2cnnc2)c2ccccc21", "Potency": "inconclusive [activator, single point]"}
{"smiles": "COc1ccc(NC(=O)Nc2ccc3c(c2)C(=O)N([C@@H](C)CO)C[C@@H](C)[C@@H](CN(C)S(=O)(=O)c2cn(C)cn2)O3)cc1", "Potency": "inconclusive [activator, single point]"}
{"smiles": "C=CCc1ccccc1OCC(O)CNC", "note": "(stereo not given)", "Potency": "inconclusive [activator, partial curve, poor fit]"}
{"smiles": "CC(C)CCNC(=O)C(c1ccc(O)cc1)N(Cc1cccs1)C(=O)C1COc2ccccc2O1", "note": "(stereo not given)", "Potency": "inconclusive [activator, single point]"}
{"smiles": "COc1cc2c(c(OC)c1OC)-c1ccc(SC)c(=O)cc1C(NC=O)CC2", "note": "(stereo not given)", "activity, positive = re-replication": "inconclusive: 82.2% [activator]"}
{"smiles": "O=C(Nc1ccc(F)cc1F)Nc1ccc(F)cc1F", "Potency": "inconclusive [activator, partial curve, poor fit]"}
{"smiles": "Cc1ncc(CO)c(CO)c1O", "Potency": "inconclusive [activator, single point]"}
{"smiles": "Fc1ccc(-c2nnc(Cc3nnc(-c4ccc(F)cc4)o3)o2)cc1", "Potency": "inactive"}
{"smiles": "CCN(CC)CCNC(=O)c1ccc(NC(=O)c2cccc(S(=O)(=O)N3CCCCCC3)c2)cc1", "activity, positive = re-replication": "inconclusive: 42.7% [activator]"}
{"smiles": "O=C(NC1CCN(Cc2ccccc2)CC1)c1cccc(S(=O)(=O)Nc2ccc(SC(F)F)cc2)c1", "Potency": "inactive"}
{"smiles": "COc1cccc(-c2nc(CS(=O)(=O)CC(=O)Nc3c(C)cccc3C)c(C)o2)c1", "Potency": "inactive"}
{"smiles": "c1cnc(-c2nnc3n2CCCCC3)cn1", "Potency": "active: 1.46 µM"}
{"smiles": "CC(C)[C@@H]1CC[C@@H](C)C[C@H]1OC(=O)C[n+]1cc(-c2ccc(Cl)cc2)n2c1CCCCC2", "Potency": "inconclusive [activator, partial curve, poor fit]"}
{"smiles": "Cc1ccc(OCC(=O)Oc2c(C)cccc2C)cc1C", "Potency": "inconclusive [activator, full curve, poor fit]"}
{"smiles": "COc1ccc(S(=O)(=O)/N=C2\\C=C(Nc3ccc(O)cc3)C(=O)c3ccccc32)cc1", "Potency": "active: 4.61 µM"}
{"smiles": "CCCCCCCCNc1ncnc2[nH]ncc12", "Potency": "inconclusive [activator, single point]"}
{"smiles": "Cc1cc2nc(-c3ccc(SCc4ccccn4)nc3)[nH]c2cc1C", "Potency": "inconclusive [activator, single point]"}
{"smiles": "Cc1oc(-c2ccccc2)nc1CS(=O)CC(=O)NC1CCCC1", "note": "(stereo not given)", "Potency": "inactive"}
{"smiles": "CCCOP(=O)(c1ccc(N(C)C)cc1)C(O)c1cccnc1", "note": "(stereo not given)", "Potency": "inactive"}
{"smiles": "O=C(NC1CCCCCC1)C1CCC(CNS(=O)(=O)c2ccc(Br)s2)CC1", "note": "(stereo not given)", "Potency": "inconclusive [activator, single point]"}
{"smiles": "Cc1cc(C)c2c(N)c(C(=O)N/N=C/c3ccccc3)sc2n1", "Potency": "active: 9.2 µM"}
{"smiles": "CCOC(=O)C1=C(CSc2nc(-c3ccccc3)ccc2C#N)OC(N)=C(C#N)C1c1cccnc1", "note": "(stereo not given)", "Potency": "inconclusive [activator, single point]"}
{"smiles": "Cc1oc2c(c1C(=O)Nc1cccc3ccccc13)CCCC2", "Potency": "inconclusive [activator, single point]"}
{"smiles": "CC(OC(=O)/C(C#N)=C/c1ccc(N(C)C)cc1)C(=O)N(C)c1ccccc1", "note": "(stereo not given)", "Potency": "inconclusive [activator, single point]"}
{"smiles": "CCOc1ccc(OCC)c(NC(=O)CN2CCC(NC(=O)c3cccc(F)c3)CC2)c1", "Potency": "inconclusive [activator, single point]"}
{"smiles": "O=C(Nc1nc2n(n1)C(c1ccc(Cl)cc1)CC(c1ccc(Cl)cc1)N2)c1ccco1", "note": "(stereo not given)", "Potency": "inconclusive [activator, partial curve, poor fit]"}
{"smiles": "Nc1ccc2nc(-c3ccccc3)[nH]c2c1", "Potency": "inconclusive [activator, partial curve, poor fit]"}
{"smiles": "CC(=O)Nc1ccc(-c2csc(NC(=O)C3CCN(S(=O)(=O)c4cccs4)CC3)n2)cc1", "Potency": "inconclusive [activator, single point]"}
{"smiles": "Cc1cc(C)cc(NC(=S)N2CCN(c3ccccn3)CC2)c1", "Potency": "inactive"}
{"smiles": "Cc1ccc(C(O)P(=O)(OC(C)C)c2ccc(N(C)C)cc2)cc1", "note": "(stereo not given)", "Potency": "inconclusive [activator, full curve, poor fit]"}
